# Test results as given in the supplement of paper PMC3334620.
# In all, about 33,000 sequences were measured (“E-score (-0.5 to 0.5)”: median about -0.01, highest 2% from about 0.26 on). The list shows a part of the results.
# Target: Ste12 (UniProt P13574)
# Test: PBM E-score (8-mer binding enrichment) (E-score (-0.5 to 0.5)); higher = stronger / more preferred TF binding; most listed sequences are background and not binding sites
# Settings: protein concentration: 200 nM; construct: GST-DNA-binding domain
# Protocol: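 Universal 'all 10-mer' protein binding microarrays (Agilent AMADID 015681) probed with GST-tagged S. cerevisiae TFs (full-length or DBD) made by in vitro transcription/translation (PURExpress), about 100-200 nM. Bound TF was detected with fluorescent anti-GST. Each ungapped 8-mer (which stands for itself and its reverse complement) is scored by the PBM enrichment score (E-score), a modified Wilcoxon-Mann-Whitney statistic from -0.5 to +0.5, computed with the Universal PBM Analysis Suite. Scale: above 0.35 generally sequence-specific binding.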
row,Sequence,PBM E-score
1,AGTCCGCG,-0.148
2,AAGGTCAG,-0.104
3,CGGGTTAG,-0.209
4,AATTGAGC,-0.0246
5,CCAACTCC,0.171
6,CCCACGAC,-0.211
7,TCGGGGAA,0.0651
8,AAGCAAAC,0.129
9,AAGCTTCT,-0.128
10,AGTTTTCA,0.0833
11,AGGATGGG,-0.0868
12,CACAAGAA,0.219
13,ATAGTGTA,0.207
14,GGGATACC,-0.0812
15,TGTCTGAA,0.251
16,GATACCAC,0.0479
17,ACGAGCTC,0.00975
18,CATAGCAG,-0.255
19,GGTCGACA,-0.215
20,AGATATAG,0.176
21,AGGTCTAG,-0.203
22,ACGCGAGT,0.103
23,AACGTACC,-0.175
24,AGCAAGGG,-0.041
25,GAGCCGGA,-0.0206

row,Sequence,PBM E-score
1,AAAGAACG,0.00966
2,CTTTGTAA,0.152
3,ACGGACAG,-0.249
4,ACCATTCC,0.0233
5,CAATGAAA,0.258
6,AACTCAGC,0.109
7,CGTAGGGA,-0.207
8,AACATTGC,0.0224
9,CCTCCCCA,0.329
10,AGTAACCG,0.0632
11,CGTTGGAA,0.0184
12,CTCAGAGA,0.0726
13,TGGTTAAA,0.216
14,ACTTTCCA,0.12
15,CATTTAGA,0.149
16,TATGCATA,-0.091
17,GTCATCCA,-0.0274
18,ATTCGGCC,0.0174
19,GGGATTAC,-0.141
20,GAAGTGCC,-0.0365
21,AATGGCCG,-0.19
22,ATATCGTG,-0.106
23,AAGGAACA,-0.199
24,CTCTCGTC,-0.0536
25,CGCACATC,-0.0717

row,Sequence,PBM E-score
1,ATTGGGAC,0.176
2,ACACTGCC,0.0443
3,CTCACGGA,-0.226
4,ATTGTATC,0.132
5,ATCAACCG,-0.0497
6,CCCCAGGC,-0.139
7,ACAGAGGG,-0.0853
8,CCTCTACC,-0.0701
9,ACCTTTCT,0.0213
10,ATAAATGC,0.136
11,CTTGTGCC,0.00807
12,ATAATTAT,0.195
13,ATGCTTTG,-0.0044
14,AGGACCCT,-0.182
15,CGTAAAAA,0.126
16,AGACACAA,0.0527
17,GTGAATAA,0.12
18,AGTATGGA,0.0771
19,AGCCCGTG,-0.193
20,CACGATGA,0.0569
21,ACGTACGA,-0.0743
22,ATGGCGAG,-0.0172
23,CAGCCGTA,-0.132
24,ACCCTCCT,-0.00559
25,GATTGAGC,0.00535

row,Sequence,PBM E-score
1,CAGTAGCA,-0.104
2,AATCAGGC,0.0463
3,GTTAAAGA,0.0582
4,ATACCAGA,0.0337
5,ACCAGACG,-0.174
6,GGTGCAAA,-0.05
7,GGGCCGGA,-0.0748
8,AACCGCTG,-0.0535
9,AATACCAG,0.0671
10,CCAAACAC,0.137
11,GCGTGGGA,-0.173
12,AAGACCTG,-0.147
13,AAAGCGAG,0.175
14,GCATTCTA,0.0698
15,CGAAAGGA,0.126
16,AAAGCACG,0.0339
17,CACCCCCA,-0.27
18,GCTCAACC,-0.0532
19,GAAATTGA,0.12
20,AGTAAGAA,0.113
21,AAGAGAAA,-0.0837
22,CTAGCTGA,-0.00193
23,AGTTATCC,-0.111
24,TGCGGGAA,0.177
25,ACGTGTCC,-0.311

row,Sequence,PBM E-score
1,ACAACTCT,-0.0284
2,ACAACTGA,0.293
3,CCCACACG,-0.0369
4,AGGTTTTG,0.0633
5,CACCCCCG,0.1
6,ACCGGTGA,-0.0973
7,GCCCTCCA,-0.0563
8,ATCTACCC,0.121
9,CCATTACG,-0.105
10,ATTGTGTG,-0.0472
11,ACCTCCGA,-0.0688
12,ACTGTGCG,0.0712
13,GGGGCGAA,0.112
14,AGAGTATC,0.106
15,GGCTTACA,0.00317
16,TACGTATA,0.0442
17,AAGGGACA,0.0223
18,GGATGGCA,0.106
19,AAAGCAAT,0.151
20,AACACAAC,0.172
21,TGTCCTAA,-0.141
22,AAATACCA,0.203
23,GAAGCTAC,-0.184
24,AACGGGGG,-0.0478
25,ATGGTGTG,0.113

row,Sequence,PBM E-score
1,GCTTTCAC,0.0706
2,ACTTCCAC,-0.0183
3,ACGAGGCC,-0.225
4,AAGGGAAA,0.0253
5,CCGAAGCG,-0.115
6,GCCGAGTA,-0.16
7,ATCCAACA,0.0608
8,CCTGTATC,0.112
9,ATCTAAGC,-0.00576
10,ATGTTGCG,0.139
11,CATACTAG,0.0597
12,AGATCAAC,0.0312
13,AGGTACCA,-0.194
14,AGTTGGCC,-0.172
15,GCTTCCAC,-0.11
16,ATGCCAGA,0.172
17,CGGGCGCC,-0.0614
18,GTGCATAA,0.0464
19,GTGGTCCA,0.00441
20,ACCAAACT,0.187
21,ACCATGAA,0.247
22,ATATATCA,0.00834
23,AATTGAGG,0.0215
24,AAGATCCT,-0.127
25,GCCCAAGA,-0.211

row,Sequence,PBM E-score
1,AAGGCAAC,-0.0828
2,ACGGGACA,0.0992
3,CAGATTTA,0.246
4,AAGGTCGC,-0.118
5,ACAGATCT,0.0428
6,CTATTCAG,-0.0515
7,ACCGCCTC,-0.0604
8,AAAGATAC,0.0821
9,AGAGGGGC,-0.147
10,GCTGTAAC,0.197
11,AATCACCC,0.182
12,ACTTCAAC,0.00966
13,AAAAACTA,0.188
14,GAGACACA,0.12
15,ATACTCTA,0.0717
16,GTCGCCGA,-0.0815
17,AACCCGTC,-0.187
18,GCAGTAAC,0.00347
19,CAGTAATG,-0.0545
20,TCACTAGA,0.119
21,CTTAGTCC,-0.127
22,TAGCCGAA,0.0257
